This is one part of the list.
T1: UNK ZnF1-6 (called full-length) (human, UniProt Q9C0B0 30-357)
T1 sequence: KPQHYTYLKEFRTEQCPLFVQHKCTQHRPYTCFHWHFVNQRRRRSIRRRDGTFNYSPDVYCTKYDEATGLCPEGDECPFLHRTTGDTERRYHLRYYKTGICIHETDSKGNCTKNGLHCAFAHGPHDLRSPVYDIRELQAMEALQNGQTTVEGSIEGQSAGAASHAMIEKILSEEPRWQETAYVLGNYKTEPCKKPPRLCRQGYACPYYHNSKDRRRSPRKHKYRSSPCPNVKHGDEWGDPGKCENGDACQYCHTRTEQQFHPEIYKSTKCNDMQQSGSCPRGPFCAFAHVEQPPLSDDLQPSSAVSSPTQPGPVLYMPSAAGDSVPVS

B1: chr1:158765746:158766682:-|CDS|ENSG00000197403|control|control|control (ssRNA)
RNA: GGGAGUUCUACAGUCCGACGAUCUUGCACUGAUACGUCUAUAAAUGUCCUAGUAGAUUUUGUUAUAAAUUCCUGCAAGAUCCUAGCCACCUUCCUGCUGAUCCUCUGCUCCUAUGUGCAGAUCAUCUGCACAGUGCUCAGAAUCAACAGAGGAUUGAGCAUCA
B2: ENSG00000198589:be:win_7801|CDS|ENSG00000198589|bound_else_gene|NA|bound_elsewhere_windowed (ssRNA)
RNA: GGGAGUUCUACAGUCCGACGAUCGUCUGUGGCUUCUGGGAUAAAAGUUUCAGAGUCUAUUCUACAGACACAGGAAGAUUGAUCCAAGUGGUGUUUGGCCAUUGGGAUGUCGUCACUUGCCUUGCUCGUUCUGAGUCAUAUAUUCAACAGAGGAUUGAGCAUCA
B3: ENSG00000198589:be:win_9501|3pUTR|ENSG00000198589|bound_else_gene|NA|bound_elsewhere_windowed (ssRNA)
RNA: GGGAGUUCUACAGUCCGACGAUCCGAAACAAUGUUAUUUGGUGGUGUAUAAUUCUACUUUUCUAGUAGAUUACUGUGUGGAAUUCUGUGAAAAAUAUUUGAGAAAAGGCCUGUAUUGCAUAAAUAAAUUCUUUGUAUGUUGUGCAACAGAGGAUUGAGCAUCA
B4: chr1:10469171:10469279:-|CDS|ENSG00000160049|unk|FALSE|unique (ssRNA)
RNA: GGGAGUUCUACAGUCCGACGAUCGUGGAUGAUGACGAUUACUUUCUGUGUCUACCUUCCAAUACUAAGUUUGUGGCAUUGGCUAGUAAUGAGAAAUGGGCAUACAACAAUUCAGGUAAGAAACUCUAGCCAUGUAUAAAACGGCAACAGAGGAUUGAGCAUCA
B5: chr11:72192224:72192325:+|CDS|ENSG00000110195|unk|total|mutant (ssRNA)
RNA: GGGAGUUCUACAGUCCGACGAUCAGACAUGGCUCAGCGGAUGACAACACAGCUGCUGCUCCUUCCCGUGUGGGUGGCUGCCGCCGGGGAGGCUCAGACAAGGAUUGCAUGGGCCAGGACUGAGCUUCUCAAUGUCUGCAUGAACAACAGAGGAUUGAGCAUCA
B6: chr6:17764380:17764481:-|CDS|ENSG00000137177|msi1|total|mutant (ssRNA)
RNA: GGGAGUUCUACAGUCCGACGAUCCCAGAGCAUCCCUGAGAAAAACUCCAAAUCACUGUGCAGGACUGGCUCAUGUUCAGAACCCGAUGCCUGCCCCAGCAAAAUCCGCCAGCCAGCCAGGGGAUUCUGCCCCAGGGAGGUGACCAACAGAGGAUUGAGCAUCA
B7: chr8:67434037:67434240:-|three_prime_utr|ENSG00000165078|control|control|control (ssRNA)
RNA: GGGAGUUCUACAGUCCGACGAUCCCCUUGUGAUGACACAUACUGUGGCCCUUUUCCAGAAUCUGAGCCGGAAGUGAAGGCUGUAGCUAACUUCCUUCGAAAACACAGAAAGCACAUUAGGGCUUAUCUCUCCUUUCAUGCAUACAACAGAGGAUUGAGCAUCA
B8: chr19:12317476:12318593:-|three_prime_utr|ENSG00000188868|control|control|control (ssRNA)
RNA: GGGAGUUCUACAGUCCGACGAUCCACCAUUGUCAACAUAAAACAACUCACAGAGCAGAAAAACUCUGUGAGUGUAAAAUAUGUAGGGAAGCCUUCAGUCAUUUUGGUAACUUAAAAGUACAUGAGGCUGGGCACAGUGGCUCACAACAGAGGAUUGAGCAUCA
B9: chr11:214995:215097:+|3pUTR|ENSG00000177963|unk|FALSE|unique (ssRNA)
RNA: GGGAGUUCUACAGUCCGACGAUCCCUCCUUCCUACUGGUUUAGACUACACUUACAACAAGGAAAAUGCCCCUCGUGUGACCAUAGAUUGAGAUUUAUACCACAUACCACACAUAGCCACAGAAACAUCAUCUUGAAAUAAAGACAACAGAGGAUUGAGCAUCA
B10: chr11:119314942:119315043:-|CDS|ENSG00000076706|msi1|FALSE|unique (ssRNA)
RNA: GGGAGUUCUACAGUCCGACGAUCGGGAGACUCUGCCCCUCUUGUAGCCCAGGACCCUUCUCCUCCUCUGUGUCUCCUCCCAUUAGGUCCACAAGGAGAAGCGGACGCUCAUCUUCCGUGUGCGCCAGGGCCAGGGCCAGAGCGCAACAGAGGAUUGAGCAUCA
B11: chr7:30013596:30013706:-|3pUTR|ENSG00000106080|msi1|total|mutant (ssRNA)
RNA: GGGAGUUCUACAGUCCGACGAUCUUAUAUUCAAUAUUUACUUCUUAAGGCCCGCGGAAUAUCCUUCCUGGUUCUUUAAUGGGCCGUCUACCGUAUAUUAUACUACAAUAACAUUGUAUCAUAAGAUAAAGCCGUAAACCAGUCCAACAGAGGAUUGAGCAUCA
B12: chr13:73693106:73693207:-|3pUTR|ENSG00000118922|msi1|FALSE|unique (ssRNA)
RNA: GGGAGUUCUACAGUCCGACGAUCCAGAGAACACAGAGAGGGACAAACACAGCCAUGAACCCCCUGGCACUAGUACCAGCACCUAGUUGGCAAGUAGUGGGUGCAUCUCUCAAGUGAAGUGUAGAUUUGUAUUUAGUCCUGCUUCAACAGAGGAUUGAGCAUCA
B13: chr11:86278520:86278536:+|CDS_3pUTR|ENSG00000074266|msi1_unk|total|mutant (ssRNA)
RNA: GGGAGUUCUACAGUCCGACGAUCUGAUGCCAGUAUUUGGCGCUGGGAUCGACUUCGAUAAAAUACUUUUGCCUAAUCAAAAUCCGAGUGUGUUUGUUGUCUGUGUAAAACCGAAUUAAUGUAUCUUGCCCGUAAGGGCACGUACAACAGAGGAUUGAGCAUCA
B14: chr1:2308404:2308505:+|3pUTR|ENSG00000157933|unk|total|mutant (ssRNA)
RNA: GGGAGUUCUACAGUCCGACGAUCUUCUUUGCUUUUGUUUUCUUUGCGGUUGUUCUGUGUGCAUGGAUUCCACACCUCUGCCGCCGGCCGAUCCGUCAGCGGGCAUUAUUACCGUGUCUUGUAAAGGGUCGGUUUUGUUAUGCACAACAGAGGAUUGAGCAUCA
B15: chr20:58459100:58460789:-|three_prime_utr|ENSG00000198768|control|control|control (ssRNA)
RNA: GGGAGUUCUACAGUCCGACGAUCACAUCAGGAUGGCGGCUCUGGACACCCAUUCAACCCUUCAGACUCCCUCCUGGCAGCUGUAGGGAAGGAACCAUUCUCCUCUGCUCUGUCAUGGAUGGAUGCACAGCCCCACUGCUUCCACAACAGAGGAUUGAGCAUCA
B16: chr4:137519872:137519973:-|3pUTR|ENSG00000189184|unk|total|mutant (ssRNA)
RNA: GGGAGUUCUACAGUCCGACGAUCAACUAUUCAUUUUCCGCUUUUGUCUCCAGUGCAUGAUCUCAUAUUUUUGCUUUUAUUUUCCGUAUAAGAACAUUUAUAAAAUCAUAUUUUUGUUACUGCAAUUGUUUUAUUUGUUGUGUGCAACAGAGGAUUGAGCAUCA
B17: chr5:96781692:96781854:-|CDS|ENSG00000164307|control|control|control (ssRNA)
RNA: GGGAGUUCUACAGUCCGACGAUCGUGACCUUGGCAGUGUUUGCUGUGGGGGCCCAGAGCACAGAAGGCUGGGAUUUUCUUUAUAGUAAAUAUCAGUUUUCUUUGUCCAGUACUGAGAAAAGCCAAAUUGAAUUUGCCCUCUGCCAACAGAGGAUUGAGCAUCA
B18: chr2:32414998:32415099:+|CDS|ENSG00000115760|unk|FALSE|unique (ssRNA)
RNA: GGGAGUUCUACAGUCCGACGAUCCCAUGUUUAUUAGCUGGAGGUUUAUUAACAUAUAAAUCUCCUGCUACCUCACCCAUUAGUAGUAAUUCUCACAGGUCACUGGAUGGUUUAAGCAGAACUCAGGGUGAAAGUAUAUCAGAACAACAGAGGAUUGAGCAUCA
B19: chr14:50159683:50159784:-|CDS|ENSG00000100485|unk|total|mutant (ssRNA)
RNA: GGGAGUUCUACAGUCCGACGAUCGAGGAAAAUACAAAUUUGUGAUAAAGAAGAUACUUGUGAGCACAAGCAUGCAUUUGAAUCCGUAUCCAAAGAUGAGAACAGCAUAAUAUUUGCUGCUAAGUCUGCUGAAGAAAAAAACAACAACAGAGGAUUGAGCAUCA
B20: chr5:179730620:179730726:+|3pUTR|ENSG00000127022|msi1_unk|FALSE|overlapping (ssRNA)
RNA: GGGAGUUCUACAGUCCGACGAUCGAGCUUUAAAUCAUUAGAGCUUAAAUUGUCAGAUCGUUCAUUGCCUUUCCAGGGUUAUUUAGUAAAGUUUGUUGAAAACAAAAACGCCUUUUCUUGGUUCUUUUUUCAGUUAUUUUGAAGCAACAGAGGAUUGAGCAUCA
B21: ENSG00000197006:stop:overlap|stop_codon|ENSG00000197006|stop_codon|NA|stop_codon (ssRNA)
RNA: GGGAGUUCUACAGUCCGACGAUCUUGCCCUUGUCCUCCCCUUUCAUCCCUAUGUGGAAAACGGUAAGUGUGGUCAGUCAGGCUAGCUCUUACUGAGGAUAGCUGUUUAUUGGUAUUUGUGAUUUUGUGCUGUGUACAAUUAAACAACAGAGGAUUGAGCAUCA
B22: chr7:74195289:74195308:+|CDS_3pUTR|ENSG00000106682|msi1_unk|total|mutant (ssRNA)
RNA: GGGAGUUCUACAGUCCGACGAUCGCGACGCCCCUCAAUCAAGCCGCCAAUCCCAACUCUGCUAUCUUCGGGGGUGCCAGGCCCCGAGAGGAAGUCGUUCAAAAGGAGCAAGAAUGAGCCUGCGGUUGGGAGGGAAUGGGGCGUCAACAGAGGAUUGAGCAUCA

These binders were tested against T1, UNK ZnF1-6 (called full-length) (assay: nsRBNS (natural sequence RNA bind-n-seq); RBNS binding buffer (assumed for nsRBNS): 25 mM Tris pH 7.5, 150 mM KCl, 3 mM MgCl2, 0.01% Triton X-100, 500 ug/ml BSA, 20 U/ml SUPERase-In, 4 C; UNK is unkempt and MSI1 is Musashi-1; names of the RNAs are library labels; protein concentration not given here; high values mean tight binding).

| Binder | binding signal [enrichment R] |
| --- | --- |
| B1 | 0.543 |
| B2 | 0.431 |
| B3 | 0.511 |
| B4 | 0.437 |
| B5 | 0.739 |
| B6 | 0.736 |
| B7 | 0.751 |
| B8 | 0.481 |
| B9 | 1.35 |
| B10 | 1.02 |
| B11 | 0.716 |
| B12 | 1.63 |
| B13 | 0.242 |
| B14 | 0.543 |
| B15 | 0.592 |
| B16 | 0.904 |
| B17 | 0.885 |
| B18 | 0.56 |
| B19 | 0.305 |
| B20 | 0.715 |
| B21 | 0.997 |
| B22 | 0.648 |
